Positions count from the first letter of the chain named. The list shows a part of the results.

The labels stand for the following.
B1: CGUGUGC (DNA:RNA)
RNA: GGGAGACCGGAAUUCAGAUUGUCCCGUGUGCUUAAAUCCCGUCGUAGCCACCA
DNA 1: CAATCTGAATTCCGGTCTCCC
DNA 2: TGGTGGCTACGACGGGATT
B2: GGGAUGG (DNA:RNA)
RNA: B1 RNA with C25G, U27G, G28A, C31G
DNA 1: CAATCTGAATTCCGGTCTCCC
DNA 2: TGGTGGCTACGACGGGATT
B3: CCAGUGC (DNA:RNA)
RNA: B1 RNA with G26C, U27A
DNA 1: CAATCTGAATTCCGGTCTCCC
DNA 2: TGGTGGCTACGACGGGATT
B4: GGACAGG (DNA:RNA)
RNA: B1 RNA with C25G, U27A, G28C, U29A, C31G
DNA 1: CAATCTGAATTCCGGTCTCCC
DNA 2: TGGTGGCTACGACGGGATT
B5: UGCCUCU (DNA:RNA)
RNA: B1 RNA with C25U, U27C, G28C, G30C, C31U
DNA 1: CAATCTGAATTCCGGTCTCCC
DNA 2: TGGTGGCTACGACGGGATT
B6: ACCGAAA (DNA:RNA)
RNA: B1 RNA with C25A, G26C, U27C, U29A, G30A, C31A
DNA 1: CAATCTGAATTCCGGTCTCCC
DNA 2: TGGTGGCTACGACGGGATT
B7: UCUGGAC (DNA:RNA)
RNA: B1 RNA with C25U, G26C, U29G, G30A
DNA 1: CAATCTGAATTCCGGTCTCCC
DNA 2: TGGTGGCTACGACGGGATT
B8: ACCAACC (DNA:RNA)
RNA: B1 RNA with C25A, G26C, U27C, G28A, U29A, G30C
DNA 1: CAATCTGAATTCCGGTCTCCC
DNA 2: TGGTGGCTACGACGGGATT
B9: CUAGAGC (DNA:RNA)
RNA: B1 RNA with G26U, U27A, U29A
DNA 1: CAATCTGAATTCCGGTCTCCC
DNA 2: TGGTGGCTACGACGGGATT

The experiment has as its target T1, RBFOX1 RRM RbFoxmut (Fox-RRM*) (Homo sapiens, UniProt Q9NWB1 109-208, R118D;E147R;N151S;E152T).
T1 sequence: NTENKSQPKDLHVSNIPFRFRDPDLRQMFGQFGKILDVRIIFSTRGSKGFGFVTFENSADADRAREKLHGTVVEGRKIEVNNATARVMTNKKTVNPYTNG
Put plainly: EMSA; HiTS-Eq, 1 nM pool, 10 min; buffer printed only for the single-RNA assays: 10 mM Tris pH 7.5, 150 mM NaCl, 3.4 mM EDTA, 0.001% NP-40, 30 C. The settings on record: tags: His6 N-terminal (pET28a); label: 5' 32P. The method in brief:
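Purified wild-type or mutant RbFox RRM at increasing concentrations was equilibrated with 1 nM of 5′-radiolabelled RNA carrying 7 randomized nucleotides for 10 min in 50 µL. Unbound RNA was separated by 8% native PAGE and sequenced. Relative association constants came from read-count changes of each RNA species compared with the control reaction, normalised to the cognate motif.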
A general note: Mobility shift assays separate free from complexed probe on a gel.
As to B1, the binding signal was 0.155 KA relative to UGCAUGU.
For B2 the value was 0.318 KA relative to UGCAUGU; for B3, 0.117 KA relative to UGCAUGU.
For the molecule B4, the binding signal is 0.0786 KA relative to UGCAUGU.
Take B5: the binding signal is 0.0664 KA relative to UGCAUGU.
Regarding B6, the binding signal is 0.0941 KA relative to UGCAUGU.
For B7 the value was 0.0502 KA relative to UGCAUGU.
As to B8, the binding signal is 0.0562 KA relative to UGCAUGU.
On to B9, for which the binding signal is 0.072 KA relative to UGCAUGU.

(Values after article PMC9911399, “Two distinct binding modes provide the RNA-binding protein RbFox with extraordinary sequence specificity”.)
